In the supplement of paper PMC10126150:
Sequences with one replicate were seen in a single cluster, so their values are uncertain.

Tested on: ATP
Test: switch fluorescence ratio, 500 uM ATP over buffer (Cy3 cluster intensity, sum of 5 cycles each) (fold (ratio)); higher = stronger signal-on switching upon ATP binding; sequences stand for … in TCGTCGGCAGCGTCAGATGTGTATAAGAGACAGTTTTTTTTTTTTTTTTTTTTTTTTT…TC
Settings: aptamer strand: ATP DNA aptamer (quencher-CACCTGGGGGAGTATTGCGGAGGAAGG + anchor), 100 nM annealed; ATP concentration: 500 uM; one replicate
Outline: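 The fluorescence ratio divides summed target-cycle Cy3 intensity by summed buffer-cycle Cy3 intensity for each cluster and is averaged per switch-domain sequence. Cy3-labelled switching-strand clusters on a modified Illumina MiSeq flow-cell were annealed to 100 nM quencher-labelled ATP aptamer, then imaged in selection buffer and again after 15 min with 500 uM ATP at 22 °C. Five such cycles were run, with NaOH stripping and re-annealing between them, and clusters outside 100-1000 RFU were excluded.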
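Further: ATP exposure 15 min at 22 °C before imaging.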

Sequence | switch fluorescence ratio
TTGTTAGCGA | 1.84
TCTCTCTAGT | 0.991
TGCTATTTAG | 1.04
AAACATTCT | 1.2
GATTGCAGG | 1.02
TTACAGCCGA | 1.06
ATGTTTCTG | 1
AGTAACTACC | 1.09
TTGCGACAAA | 1.03
ATGTCCGTT | 0.938
ACATTACGAT | 1.35
AGTAAGTTAG | 1.05
TATGGATCTC | 1.01
CGAGCCTTAG | 1.05
TCAGCTTGTG | 1.02
AAGTCTGCAT | 1.11
GCCAATATTG | 1.04
GATGGGACGG | 1.01
GTGTCAGGC | 1
TGACTTGTGG | 0.985
CGGAGGCGAT | 1.29
TTCATGGAT | 0.981
CGGCCCGTAC | 1.28
CCAAGGTATG | 1.04
AAGCTCTGGC | 1.07
TGGTGTATAA | 1.03

Sequence | switch fluorescence ratio
TTGTTATGCA | 1.03
CTACGGTCGT | 1.02
TTTCTCGGGT | 1.01
TAATAGGCGT | 0.984
TGGTCTCTGT | 0.963
GGTTTGGCCT | 1.01
AGAATTGACT | 0.972
CAACGGTAAC | 1.27
AATTAAATTT | 1.05
CGGATCTCTA | 1.03
CGTTACTCTT | 1.08
GCTGTCGGGT | 1
TTAAGGATCG | 0.972
GTTTCCATTA | 0.964
GCAAAAAAT | 0.976
ATGGAGAAGG | 0.998
CACTATGGTT | 1.01
CTACGTCGGC | 1.28
GTAAGATCTG | 1.01
GCTCGAGGTT | 1.01
ATAGCATACA | 1.11
TGATCCGGG | 1.01
AGTGGGCGCC | 0.978
GGATGTTAGG | 0.994
GAACGAAATT | 1.02
GCATAGCACA | 1.04

Sequence | switch fluorescence ratio
CAATAGTGCC | 0.965
AGGACTTGAG | 0.966
CGTAGCTTC | 3.67
GCCGGTTTTT | 1.02
CAGGTTCCGT | 0.991
TTTCCTTGGA | 0.99
ATTTATATAC | 1.04
GTTAGAACGA | 0.985
TGGTCAAAAG | 0.993
TCCTGATTTA | 0.99
AGGGCTCCGA | 1.03
AACCGTCTGC | 1.07
TGGCCTCACG | 1.03
GGCGAACGGG | 1.07
CCAAGATGT | 1
ACGCACAGGA | 1.24
GCTGTCCTGT | 0.957
GTTTATGGTA | 1.01
GAATCAGACA | 0.968
CTCTTAGTAA | 1.09
GACGACTTAT | 1.09
AGGCCTCACG | 1.03
GTTCTATTCC | 1.05
ATAAAGGTGT | 1.14
GCTGTAGGGA | 1.02
GGTGCTCCCC | 1.54

Sequence | switch fluorescence ratio
AGGTCGTACG | 1
CCCGGTTCTC | 1.08
GGATGTAAAT | 0.978
ACTTATCCGC | 1.76
TTATGGCGAC | 0.999
GTGCTAACTT | 0.965
TCCAATTCAC | 1.01
AGACATCTTG | 0.89
CCTATCTCTG | 1.07
CGAATATTA | 1.06
AGGCTGGGTG | 1.13
GTACCGTGCC | 1.36
GGACTGGTTT | 0.964
ATGTGGTTCT | 0.994
GCTTATAACT | 0.965
GTAACCGAAA | 1.06
TTGTCCTTG | 1.01
CCGCCTCGGG | 1.21
AATCAAATGG | 1.05
TCGGTGGTT | 1.01
CCAAAAGAGT | 0.997
CTTGAGGTGG | 1.03
GCGATCGGTG | 1
TGACTATTGA | 1.01
ACCGTCGCCG | 1.02
CGTTATGCA | 0.999

Sequence | switch fluorescence ratio
AGGTATGTTA | 0.967
ACTGTGAGGG | 0.969
CGTACACGTA | 1.01
AAGACATGTT | 0.965
GGGTTTCCAT | 0.991
TTGTCTACAA | 0.989
ACTCCCGCCG | 1.15
TGTGGTTGAA | 0.987
CGGGTTGTTG | 0.964
CAACGTTGAG | 0.947
AACCGGTCCT | 1.15
TACGGGATGA | 1.05
AACTCGCTGA | 1
TATGGGACAC | 1.03
CCGGCCCCAT | 1.39
GACCTATCCC | 1.15
TCTCGTTAGA | 1
TAACTGGACA | 1.03
GTCAATTG | 1.02
CGGTTCTGAA | 0.951
GTCTAAGATG | 1
GCCGTACCGG | 1.01
TGAGCATCTG | 0.979
TATCGTCACG | 0.968
CATCATACAG | 1.03
CGACATTC | 1.12

Sequence | switch fluorescence ratio
TTGCAAAAG | 1.05
GGTTTACCAG | 0.999
TCGGATACAT | 1
TTACGGAACA | 1.29
TAGTTTGACT | 1
TGGTACGCCT | 1
TTTGATTCGC | 1.08
AGTGACCGAG | 0.994
ATGAAATTGC | 0.983
TAGGGAGGC | 0.927
TGAATTATAC | 0.995
TAAATTCGTC | 0.97
AAGAATGGG | 1.02
AATCGGAAGC | 0.985
GGAAGGAATT | 1.02
GAGAGAGCCG | 0.972
TATCGTGTTT | 0.993
CATCTGCGTC | 2.61
TTACGCGCTC | 4.36
AGCGCACGC | 1.03
TAACGGCCAC | 1.26
CTGCGCGAAT | 1.07
TCAATGCATA | 1.08
TAATAGTT | 0.974
GCAAATCAC | 1.15
AGTGACGGGT | 1.05

Sequence | switch fluorescence ratio
TTTCATTGCT | 1.02
GCATACATTG | 1.03
ACACGTGCG | 1.04
AGGGGGTTC | 0.99
ACCAGACAGG | 1.04
TATCAGAGTC | 1.01
AATTTCTTCC | 2.05
GGCCCAGCGG | 1.04
AAGGTGCGCG | 1.05
GTTAATTTCG | 1.04
GGGGAGCTGA | 1.02
GTAGGAAA | 1.02
GAATACGGCA | 1.1
GCAGCGGCAC | 1.33
TCTGATATTT | 0.985
TTTCCTAAAG | 1.02
CTGGTGCTTT | 1.02
ATTTGGAGA | 1.04
CGATGCAGGT | 1.08
CCAAATGGAT | 1
TTCAGTAATG | 0.995
GTGTGTGCGT | 0.992
CCTCCACGGA | 2.88
TATTTGTGGA | 0.988
AAATTCAGGT | 1.06
CCAACAGTA | 1.01

Sequence | switch fluorescence ratio
GGGAGGTGA | 0.986
ATTTCGCTCG | 0.986
GACGAGAACG | 1.1
AACGGCAAT | 2.6
TGCTTCGTTT | 0.958
TGAAAAGTTT | 1.09
TGGGACTGG | 1.02
CCTTGCCTAT | 1.09
TGGCAGATAG | 1.02
TTGGTGGTGT | 0.985
GTGTTGGACT | 0.953
ATTTGCGTAT | 1.03
CTACTGTGCG | 1.07
TGTGCAAGCA | 0.955
CAGGGTCCAG | 0.971
AGGGGCTCGG | 0.999
ACAAACACTA | 1.2
GGGTCGACTC | 0.991
ACTATCGGAA | 1.29
